# Substitutions are numbered along the chain they refer to; changes in the protein carry UniProt numbers. This is one part of the list.
# T1: RBFOX1 RRM (Homo sapiens, UniProt Q9NWB1 109-208)
# T1 sequence: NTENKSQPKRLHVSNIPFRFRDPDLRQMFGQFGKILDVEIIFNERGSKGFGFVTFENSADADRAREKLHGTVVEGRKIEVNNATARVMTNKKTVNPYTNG
# B1: GAGCCUG (DNA:RNA)
# RNA: GGGAGACCGGAAUUCAGAUUGUCCGAGCCUGUUAAAUCCCGUCGUAGCCACCA
# DNA 1: CAATCTGAATTCCGGTCTCCC
# DNA 2: TGGTGGCTACGACGGGATT
# B2: AGCGGAA (DNA:RNA)
# RNA: GGGAGACCGGAAUUCAGAUUGUCCAGCGGAAUUAAAUCCCGUCGUAGCCACCA
# DNA 1: CAATCTGAATTCCGGTCTCCC
# DNA 2: TGGTGGCTACGACGGGATT
# B3: GAAGGAC (DNA:RNA)
# RNA: B2 RNA with A25G, G26A, C27A, A31C
# DNA 1: CAATCTGAATTCCGGTCTCCC
# DNA 2: TGGTGGCTACGACGGGATT
# B4: GGUAGCG (DNA:RNA)
# RNA: B2 RNA with A25G, C27U, G28A, A30C, A31G
# DNA 1: CAATCTGAATTCCGGTCTCCC
# DNA 2: TGGTGGCTACGACGGGATT
# B5: CGGGCGG (DNA:RNA)
# RNA: B1 RNA with G25C, A26G, C28G, U30G
# DNA 1: CAATCTGAATTCCGGTCTCCC
# DNA 2: TGGTGGCTACGACGGGATT
# B6: UAUAGUC (DNA:RNA)
# RNA: B1 RNA with G25U, G27U, C28A, C29G, G31C
# DNA 1: CAATCTGAATTCCGGTCTCCC
# DNA 2: TGGTGGCTACGACGGGATT
# B7: GCUUUCU (DNA:RNA)
# RNA: B1 RNA with A26C, G27U, C28U, C29U, U30C, G31U
# DNA 1: CAATCTGAATTCCGGTCTCCC
# DNA 2: TGGTGGCTACGACGGGATT
# B8: CUCAGGA (DNA:RNA)
# RNA: B2 RNA with A25C, G26U, G28A, A30G
# DNA 1: CAATCTGAATTCCGGTCTCCC
# DNA 2: TGGTGGCTACGACGGGATT
# B9: CAUCUCA (DNA:RNA)
# RNA: B1 RNA with G25C, G27U, C29U, U30C, G31A
# DNA 1: CAATCTGAATTCCGGTCTCCC
# DNA 2: TGGTGGCTACGACGGGATT
# B10: CCUACCC (DNA:RNA)
# RNA: B1 RNA with G25C, A26C, G27U, C28A, U30C, G31C
# DNA 1: CAATCTGAATTCCGGTCTCCC
# DNA 2: TGGTGGCTACGACGGGATT
# B11: GCAGCAU (DNA:RNA)
# RNA: B2 RNA with A25G, G26C, C27A, G29C, A31U
# DNA 1: CAATCTGAATTCCGGTCTCCC
# DNA 2: TGGTGGCTACGACGGGATT
# B12: UCAUAGU (DNA:RNA)
# RNA: GGGAGACCGGAAUUCAGAUUGUCCUCAUAGUUUAAAUCCCGUCGUAGCCACCA
# DNA 1: CAATCTGAATTCCGGTCTCCC
# DNA 2: TGGTGGCTACGACGGGATT
# B13: UACCUCA (DNA:RNA)
# RNA: B2 RNA with A25U, G26A, G28C, G29U, A30C
# DNA 1: CAATCTGAATTCCGGTCTCCC
# DNA 2: TGGTGGCTACGACGGGATT
# B14: AAAGUAU (DNA:RNA)
# RNA: B2 RNA with G26A, C27A, G29U, A31U
# DNA 1: CAATCTGAATTCCGGTCTCCC
# DNA 2: TGGTGGCTACGACGGGATT
# B15: UAGACUC (DNA:RNA)
# RNA: B1 RNA with G25U, C28A, G31C
# DNA 1: CAATCTGAATTCCGGTCTCCC
# DNA 2: TGGTGGCTACGACGGGATT
# B16: UUCCUGC (DNA:RNA)
# RNA: B12 RNA with C26U, A27C, U28C, A29U, U31C
# DNA 1: CAATCTGAATTCCGGTCTCCC
# DNA 2: TGGTGGCTACGACGGGATT
# B17: CACCUGC (DNA:RNA)
# RNA: B1 RNA with G25C, G27C, C29U, U30G, G31C
# DNA 1: CAATCTGAATTCCGGTCTCCC
# DNA 2: TGGTGGCTACGACGGGATT
# B18: CGUCACA (DNA:RNA)
# RNA: B2 RNA with A25C, C27U, G28C, G29A, A30C
# DNA 1: CAATCTGAATTCCGGTCTCCC
# DNA 2: TGGTGGCTACGACGGGATT
# B19: CCGUUAC (DNA:RNA)
# RNA: B12 RNA with U25C, A27G, A29U, G30A, U31C
# DNA 1: CAATCTGAATTCCGGTCTCCC
# DNA 2: TGGTGGCTACGACGGGATT
# B20: AGUCCUA (DNA:RNA)
# RNA: B2 RNA with C27U, G28C, G29C, A30U
# DNA 1: CAATCTGAATTCCGGTCTCCC
# DNA 2: TGGTGGCTACGACGGGATT
# B21: GGACCGA (DNA:RNA)
# RNA: B1 RNA with A26G, G27A, U30G, G31A
# DNA 1: CAATCTGAATTCCGGTCTCCC
# DNA 2: TGGTGGCTACGACGGGATT
# B22: ACUGCCU (DNA:RNA)
# RNA: B2 RNA with G26C, C27U, G29C, A30C, A31U
# DNA 1: CAATCTGAATTCCGGTCTCCC
# DNA 2: TGGTGGCTACGACGGGATT
# B23: AAAAUGG (DNA:RNA)
# RNA: B1 RNA with G25A, G27A, C28A, C29U, U30G
# DNA 1: CAATCTGAATTCCGGTCTCCC
# DNA 2: TGGTGGCTACGACGGGATT
# B24: UCGUUUC (DNA:RNA)
# RNA: B12 RNA with A27G, A29U, G30U, U31C
# DNA 1: CAATCTGAATTCCGGTCTCCC
# DNA 2: TGGTGGCTACGACGGGATT
# B25: UGUCGCU (DNA:RNA)
# RNA: B2 RNA with A25U, C27U, G28C, A30C, A31U
# DNA 1: CAATCTGAATTCCGGTCTCCC
# DNA 2: TGGTGGCTACGACGGGATT
# B26: UCUCAUA (DNA:RNA)
# RNA: B12 RNA with A27U, U28C, G30U, U31A
# DNA 1: CAATCTGAATTCCGGTCTCCC
# DNA 2: TGGTGGCTACGACGGGATT
# B27: AUCGAAC (DNA:RNA)
# RNA: B2 RNA with G26U, G29A, A31C
# DNA 1: CAATCTGAATTCCGGTCTCCC
# DNA 2: TGGTGGCTACGACGGGATT
# B28: CUUACGU (DNA:RNA)
# RNA: B12 RNA with U25C, C26U, A27U, U28A, A29C
# DNA 1: CAATCTGAATTCCGGTCTCCC
# DNA 2: TGGTGGCTACGACGGGATT
# B29: UUAACUG (DNA:RNA)
# RNA: B1 RNA with G25U, A26U, G27A, C28A
# DNA 1: CAATCTGAATTCCGGTCTCCC
# DNA 2: TGGTGGCTACGACGGGATT
# B30: UUGUCUA (DNA:RNA)
# RNA: B1 RNA with G25U, A26U, C28U, G31A
# DNA 1: CAATCTGAATTCCGGTCTCCC
# DNA 2: TGGTGGCTACGACGGGATT
# B31: UCGCCUG (DNA:RNA)
# RNA: B1 RNA with G25U, A26C
# DNA 1: CAATCTGAATTCCGGTCTCCC
# DNA 2: TGGTGGCTACGACGGGATT
# Biological target: T1, RBFOX1 RRM
# Test: EMSA; HiTS-Eq, 1 nM pool, 10 min; buffer printed only for the single-RNA assays: 10 mM Tris pH 7.5, 150 mM NaCl, 3.4 mM EDTA, 0.001% NP-40, 30 C
# Conditions: tags: His6 N-terminal (pET28a); label: 5' 32P
# Procedure, shortened: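 These values rest on relative association constants, computed from read-count changes of each RNA species versus the control reaction and normalised to the cognate motif. Reads came from free RNA recovered by 8% native PAGE after purified RbFox RRM (wild type or mutant) at increasing concentrations was equilibrated for 10 min in 50 µL with 1 nM of a 5′-radiolabelled pool with 7 randomized nucleotides and DNA-annealed flanks.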
row,Binder,binding signal
1,B1,0.0276 KA relative to UGCAUGU
2,B2,0.00977 KA relative to UGCAUGU
3,B3,0.00264 KA relative to UGCAUGU
4,B4,0.0072 KA relative to UGCAUGU
5,B5,0.0199 KA relative to UGCAUGU
6,B6,0.0098 KA relative to UGCAUGU
7,B7,0.0146 KA relative to UGCAUGU
8,B8,0.0101 KA relative to UGCAUGU
9,B9,0.00219 KA relative to UGCAUGU
10,B10,0.00331 KA relative to UGCAUGU
11,B11,0.0149 KA relative to UGCAUGU
12,B12,0.00577 KA relative to UGCAUGU
13,B13,0.000227 KA relative to UGCAUGU
14,B14,0.00169 KA relative to UGCAUGU
15,B15,0.00599 KA relative to UGCAUGU
16,B16,0.0123 KA relative to UGCAUGU

row,Binder,binding signal
1,B17,0.00791 KA relative to UGCAUGU
2,B18,0.00392 KA relative to UGCAUGU
3,B19,0.00473 KA relative to UGCAUGU
4,B20,0.00193 KA relative to UGCAUGU
5,B21,0.0139 KA relative to UGCAUGU
6,B22,0.00954 KA relative to UGCAUGU
7,B23,0.0053 KA relative to UGCAUGU
8,B24,0.0147 KA relative to UGCAUGU
9,B25,0.0213 KA relative to UGCAUGU
10,B26,0.00153 KA relative to UGCAUGU
11,B27,0.00375 KA relative to UGCAUGU
12,B28,0.00661 KA relative to UGCAUGU
13,B29,0.0153 KA relative to UGCAUGU
14,B30,0.0137 KA relative to UGCAUGU
15,B31,0.0246 KA relative to UGCAUGU

# From article PMC9911399, “Two distinct binding modes provide the RNA-binding protein RbFox with extraordinary sequence specificity”
